# US20250243260A1 (ALPINE IMMUNE SCIENCES, published 2025)
# Numbering of substitutions follows the chain as printed. Names and notes keep the numbering of the source.
# B1: CD80_196 variant CD80 IgV-Fc (V11Y, M42W, E52K, T62A, L85E) (Fc fusion)
# chain: VIHVTKEVKEYATLSCGHNVSVEELAQTRIYWQKEKKMVLTWMSGDMNIWPKYKNRTIFDIANNLSIVILALRPSDEGTYECVVEKYEKDAFKREHLAEVTLSVKADGSGGGGS[omitted - human IgG4 Fc with S228P (EU numbers)]
# notes: also called CD80_196-Fc
# B2: CD80_197 variant CD80 IgV-Fc (V11Y, E35D, Y87Q, T101R) (Fc fusion)
# chain: B1 chain with E35D, W42M, K52E, A62T, E85L, Y87Q, T101R
# notes: also called CD80_197-Fc
# B3: CD80_198 variant CD80 IgV-Fc (H18Y, A26E, R29S, E35D, M47L, V68M, A71G, E77G, D90G) (Fc fusion)
# chain: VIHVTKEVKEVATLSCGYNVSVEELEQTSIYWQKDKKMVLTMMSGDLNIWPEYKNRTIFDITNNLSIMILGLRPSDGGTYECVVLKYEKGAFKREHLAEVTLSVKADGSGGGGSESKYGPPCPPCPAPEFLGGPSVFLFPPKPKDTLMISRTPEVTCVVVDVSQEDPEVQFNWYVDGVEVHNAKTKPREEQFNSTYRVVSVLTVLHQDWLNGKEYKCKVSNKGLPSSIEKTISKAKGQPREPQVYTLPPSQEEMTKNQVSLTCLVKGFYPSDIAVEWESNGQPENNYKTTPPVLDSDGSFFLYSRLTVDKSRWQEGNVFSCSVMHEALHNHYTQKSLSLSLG
# notes: also called CD80_198-Fc
# B4: CD80_199 variant CD80 IgV-Fc (E10G, H18Y) (Fc fusion)
# chain: B1 chain with E10G, Y11V, H18Y, W42M, K52E, A62T, E85L
# notes: also called CD80_199-Fc
# B5: CD80_200 variant CD80 IgV-Fc (K9N, E10R, H18V, T28Y, A71G) (Fc fusion)
# chain: B1 chain with K9N, E10R, Y11V, H18V, T28Y, W42M, K52E, A62T, A71G, E85L
# notes: also called CD80_200-Fc
# B6: CD80_201 variant CD80 IgV-Fc (E10G, H18Y, T28Y, M47W, T62S) (Fc fusion)
# chain: B1 chain with E10G, Y11V, H18Y, T28Y, W42M, M47W, K52E, A62S, E85L
# notes: also called CD80_201-Fc
# B7: CD80_202 variant CD80 IgV-Fc (E7H, H18L, V20I, T28Y, D46S, A71G) (Fc fusion)
# chain: VIHVTKHVKEVATLSCGLNISVEELAQYRIYWQKEKKMVLTMMSGSMNIWPEYKNRTIFDITNNLSIVILGLRPSDEGTYECVVLKYEKDAFKREHLAEVTLSVKADGSGGGGS[omitted - human IgG4 Fc with S228P (EU numbers)]
# notes: also called CD80_202-Fc
# B8: CD80_203 variant CD80 IgV-Fc (K9N, E10A, V11W, H18F, T28H, M47L, T62E, R73D) (Fc fusion)
# chain: VIHVTKEVNAWATLSCGFNVSVEELAQHRIYWQKEKKMVLTMMSGDLNIWPEYKNRTIFDIENNLSIVILALDPSDEGTYECVVLKYEKDAFKREHLAEVTLSVKADGSGGGGS[omitted - human IgG4 Fc with S228P (EU numbers)]
# notes: also called CD80_203-Fc
# B9: CD80_204 variant CD80 IgV-Fc (H18V, V20I, T28Y, E35G, M47V, R73E) (Fc fusion)
# chain: B7 chain with H7E, L18V, E35G, S46D, M47V, G71A, R73E
# notes: also called CD80_204-Fc
# B10: CD80_205 variant CD80 IgV-Fc (E10G, D46K, L85E) (Fc fusion)
# chain: B1 chain with E10G, Y11V, W42M, D46K, K52E, A62T
# notes: also called CD80_205-Fc
# B11: CD80_206 variant CD80 IgV-Fc (E10G, H18T, Q27T, D46E, M47L) (Fc fusion)
# chain: B8 chain with N9K, A10G, W11V, F18T, Q27T, H28T, D46E, E62T, D73R
# notes: also called CD80_206-Fc
# B12: CD80_207 variant CD80 IgV-Fc (E35D, V68T, T101K) (Fc fusion)
# chain: B1 chain with Y11V, E35D, W42M, K52E, A62T, V68T, E85L, T101K
# notes: also called CD80_207-Fc
# Molecular target: T1, human CTLA-4 (human, UniProt P16410 36-223)
# T1 construct: whole, on cells; also called CHO/CTLA-4 cells
# T1 sequence (P16410 36-223): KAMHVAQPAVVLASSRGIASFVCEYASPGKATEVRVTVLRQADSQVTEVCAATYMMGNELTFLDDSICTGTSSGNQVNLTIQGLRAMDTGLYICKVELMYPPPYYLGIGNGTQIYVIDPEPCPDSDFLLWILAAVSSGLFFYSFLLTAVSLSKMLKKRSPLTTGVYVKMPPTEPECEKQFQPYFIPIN
# Assay: flow cytometry on CHO/CTLA-4 cells
# Procedure: Binding affinity to CD28 was determined using primary human T cells which endogenously express CD28. Binding to PD-L1 was determined using SCC152 cells transduced with human PD-L1. Binding to CTLA-4 was measured using Chinese hamster ovary (CHO) cells stably transduced to express human CTLA-4.
# For staining and analysis by flow cytometry, 75,000 human T cells, SCC152/PD-L1 cells, or CHO/CTLA-4 cells were plated in 96-well round-bottom plates. Cells were spun down and resuspended in staining buffer (PBS (phosphate buffered saline), 1% BSA (bovine serum albumin), 1 mM EDTA, and 0.1% sodium azide) for 20 minutes to block non-specific binding. Afterwards, cells were centrifuged, stain buffer aspirated, and then resuspended in 50 μL of a 1:5 serial dilution of each CD80-Fc candidate variant starting at 100 nM ending at 0.8 nM. Primary staining was performed on ice for 60 minutes, before washing cells in […] staining buffer three times. PE-conjugated anti-human Fc (Jackson ImmunoResearch, USA) was diluted 1:250 in 50 μL staining buffer and added to cells and incubated another 30 minutes at 4° C. Cells were washed two times in 150 μL stain buffer and then fixed in 2% formaldehyde/PBS for 5 minutes at room temperature. Samples were analyzed CytoFLEX LX flow cytometer (Beckman Coulter, USA). Median Fluorescence Intensity (MFI) was calculated for each cell type using the CytExpert software from Beckman Coulter.
MFI at 0.8 nM [MFI],MFI at 4 nM [MFI],MFI at 20 nM [MFI],MFI at 100 nM [MFI],fold change vs WT CD80 at 20 nM [fold],Binder
921,2480,9750,32400,0.01,B1
286000,481000,559000,518000,0.67,B2
6300,22900,75400,201000,0.09,B3
293000,534000,604000,591000,0.73,B4
307000,478000,,507000,0.28,B5
159000,282000,345000,423000,0.42,B6
263000,419000,458000,488000,0.55,B7
58600,148000,317000,426000,0.38,B8
271000,436000,497000,503000,0.6,B9
27800,101000,256000,471000,0.31,B10
294000,511000,,587000,0.44,B11
279000,450000,478000,514000,0.58,B12
